# Hit rate of the full screen: of about 110,000 compounds, about 230 (0.21%) showed an effect of 50% or more. Some of the results follow.
# Target: DPAP1 (Plasmodium falciparum, UniProt Q8IIJ9)
# Experiment: primary screen, percent inhibition; read by cleavage of a fluorogenic dipeptide substrate; higher = more effect of the substance
# Parameters: species or system P. falciparum D10 trophozoite lysates; single well
# 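Note: 30 min substrate incubation versus DMSO and 10 µM JCP410 controls.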
# Sequence of DPAP1 (Q8IIJ9 whole entry, looked up): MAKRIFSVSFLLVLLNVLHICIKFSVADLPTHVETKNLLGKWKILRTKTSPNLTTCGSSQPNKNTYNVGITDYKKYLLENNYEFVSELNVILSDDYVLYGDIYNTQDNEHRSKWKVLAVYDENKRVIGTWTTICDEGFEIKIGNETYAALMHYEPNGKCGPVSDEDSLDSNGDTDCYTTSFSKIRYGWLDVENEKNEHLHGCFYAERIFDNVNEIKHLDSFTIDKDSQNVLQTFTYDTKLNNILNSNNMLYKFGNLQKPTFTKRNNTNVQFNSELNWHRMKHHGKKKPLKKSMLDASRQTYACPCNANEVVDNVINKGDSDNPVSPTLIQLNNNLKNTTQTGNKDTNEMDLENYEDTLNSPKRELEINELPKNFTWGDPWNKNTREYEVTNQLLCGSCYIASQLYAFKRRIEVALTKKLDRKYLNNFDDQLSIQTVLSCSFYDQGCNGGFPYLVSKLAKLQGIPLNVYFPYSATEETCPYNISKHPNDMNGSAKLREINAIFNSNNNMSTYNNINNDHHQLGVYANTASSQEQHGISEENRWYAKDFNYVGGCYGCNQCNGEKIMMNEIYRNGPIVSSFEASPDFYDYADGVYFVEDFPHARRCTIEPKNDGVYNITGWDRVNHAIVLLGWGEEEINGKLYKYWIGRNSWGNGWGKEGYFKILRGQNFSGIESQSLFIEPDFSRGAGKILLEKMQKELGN
row,Structure (SMILES),% Inhibition @ 10 uM [%]
1,Cn1c2c(c(O)c(-c3ccccc3)c1=O)C(=O)CC(C)(C)C2,3.99
2,COC(=O)C1=C(N)OC2=C(C(=O)CCC2)C1c1ccc(OC)cc1 (centres unmarked),1.54
3,CC(=O)n1nc(C)cc1-c1ccccc1,0.00178
4,COc1ccccc1N1CCN(C(=O)CN(Cc2ccc(C)cc2)S(=O)(=O)c2ccccc2)CC1,3.53
5,COc1ccccc1NCC(C)(C)CC=C(C)C,-0.0369
6,OCCOCCNc1ncnc2sc3c(c12)CCCC3,-2.65
7,Cc1ccc(C(=O)[C@H]2[C@H]3C(=O)N(C)C(=O)[C@H]3[C@@H]3c4ccccc4C=CN23)cc1,-3.41
8,COc1cccc(NC(=O)C2=C(C)NC(=O)NC2c2ccccc2OC)c1 (centres unmarked),5.29
9,Cc1nn(-c2ccc(F)cc2)c(-n2cccc2)c1C(=O)NCCc1c[nH]c2ccccc12,4.79
10,C=CCN1C(=O)/C(=C\c2ccc(C(=O)O)cc2)S/C1=N\c1nnc(C)s1,9.39
11,CCN1C2=C(C(=O)CC(C)(C)C2)C(c2ccc(OC)c(Cl)c2)C2=C1CC(C)(C)CC2=O,3.47
12,Cc1ccc(NC(=O)c2cc(S(=O)(=O)N3CCOCC3)c(Br)s2)cc1,-5.7
13,C=CCn1nnc2sc3c(c2c1=O)CCCC3,3.87
14,CC(C)CC(C(=O)N1CCCCC1)N1C(=O)c2cc(Cl)c(Cl)cc2C1=O (centres unmarked),-4.74
15,CN1CCN(C(=O)NC23CC4(C)CC(C)(CC(C)(C4)C2)C3)CC1,-5.6
16,COc1cc(OC)c(C2C(C#N)=C(N)Oc3[nH]nc(-c4cccnc4)c32)cc1OC (centres unmarked),-6.35
17,CCOc1ccccc1C1NC(=O)NC(C)=C1C(=O)OCc1ccccc1 (centres unmarked),22.5
18,CCOc1ccccc1C1N(c2ccccn2)C(=O)C2CCCN21 (centres unmarked),-2.29
19,COc1ccc(CCNC(=O)c2cc3c(=O)oc4ccc(C)cc4c3s2)c(OC)c1,3.06
20,COc1ccccc1N(CC(=O)Nc1ccccc1C(C)C)S(C)(=O)=O,-18.8
21,c1ccc(CN2CCN(C3CCCSc4ccccc43)CC2)cc1 (centres unmarked),-6.37
22,Cn1c2c(c(=O)n(C)c1=O)C(NS(=O)(=O)c1ccc(Cl)cc1)(C(F)(F)F)C(=O)N2 (centres unmarked),0.561
23,NC(=O)c1c(NC(=O)c2ccc(Br)o2)sc2c1CCCC2,-2.45
24,O=C(C1=C(O)C(=O)N(CN2CCOCC2)C1c1ccc(Br)cc1)c1ccccc1 (centres unmarked),-9.31
25,C=CCn1c(SCc2ccc(Cl)cc2)nc(O)cc1=O,-1.64
26,COC(=O)/C(C#N)=C/c1c(Oc2ccc(Br)cc2)nc2c(C)cccn2c1=O,0.315

# From paper PMC6919601, “Identification of Plasmodium dipeptidyl aminopeptidase allosteric inhibitors by high throughput screening” (PLoS ONE, 2019)
